# According to the supplement of paper PMC11417369:
# ± gives the standard deviation of the averaged measurements. Some of the results follow.
# System: PfAP2-G AP2 domain (GST-tagged)
# Experiment: gcPBM binding intensity (ln(normalized median fluorescence intensity)); higher = stronger DNA binding
# In short: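 Plasmodium falciparum DNA-binding domains carrying a GST tag were expressed in E. coli and applied for 1 h, at about 25 μg on average, to an Agilent 4 × 180k array. The array held primer-extended double-stranded 36-bp intergenic genomic probes together with negative controls, and binding took place in 1× PBS with 1% milk, 0.2 mg/ml BSA, 0.5% salmon testes DNA and 0.03% Triton X-100. An Alexa488 anti-GST antibody detected bound protein, and the array was scanned at 488 nm. Binding intensity is taken as the highest Masliner-normalised natural-log median intensity across replicate spots of either probe orientation.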
row,Sequence,gcPBM binding intensity (ln)
1,ATTTAACCAAATAATATATTTAAAAAATAGTCACAT [CACACA_negctrl_site274],10.1 ± 0.14
2,ATATTATATAACTTTTGTACGAACTATTTTATATAT [XGTACX_site6],11 ± 0.53
3,ACCTATGTATATTATACACACTCCAAACTATTCTTT [CACACA_site6939],10.16 ± 0.049
4,AATGAAGACTTTTTTACACACTTCATATATTATATA [CACACA_site2034],9.925 ± 0.021
5,TATTTATTTATATATGCATGCTAATAATTATAACAT [TGCATGCA_site988],9.84 ± 0.014
6,TTTAGAGAAGTCAAGTGTACATATAAAATAATTCAC [XGTACX_site4997],11.4 ± 0.88
7,ATAAAAATAAATAAATTATATAAATGTAATATGAAA [GTGCAC_negctrl_site663],9.7 ± 0.14
8,AAAAAAAAATATATATGTACATATGTATAATAAAAA [XGTACX_site2110],11.1 ± 0.6
9,GTATAATTGGAAATTACACACCTTATAATGTAACAT [CACACA_site6091],10 ± 0.12
10,AATGATTTTAAAAAATGTACTTTATAAACAAAATTA [XGTACX_site3803],11 ± 0.67
11,TAAAGTGTCAAATTCACACACATATATATATATATA [CACACA_site1380],9.99 ± 0.26
12,TTTTTTTTTGTTAGTTGTACGTTAAATGAATTTACT [XGTACX_site7675],11.3 ± 0.86
13,TAAATTAGAATAAATACACACAAATTAGAATTCTAT [CACACA_site7781],9.97 ± 0.028
14,ATATTTTCAGTTCTCCATTATGTTCCCATTATTTTT [CACACA_negctrl_site990],10.3 ± 0.15
15,CATGAATATTTTAATGTGCACATTTATCATTATATG,10.3 ± 0.16
16,ATGTAATAAATATACACACACAAATATATATATATA [CACACA_site2395],10.1 ± 0.16
17,CCAAACTAAATGTACACACATACATAAATATAAATA [CACACA_site1141],11.4 ± 1.1
18,ATCATGTTATATATATGTACTAATAATATAATATAA [XGTACX_site1326],11.1 ± 0.59
19,ATATATATATATATATGGTAAAGTAAAAGGAAATAC [XGTACX_negctrl_site45],10.4 ± 0.2
20,TACTAACTTTTTAAAAGTACAGAACCATAACCATAA [XGTACX_site7182],11.4 ± 0.86
21,GAATAATCTAGAAACACACAAACACGACAAAAGAAA [CACACA_site4135],10.2 ± 0.15
22,AGTTTATATTATTAAAGTACATATATATATTCTTAA [XGTACX_site3164],11.1 ± 0.76
23,AGTCGAATGATGTACACACATACAAAACATTTATGC [CACACA_site4022],11.2 ± 0.81

row,Sequence,gcPBM binding intensity (ln)
1,ATATTCAATATATTATGTACACATATATGAGGATAT [XGTACX_site7019],11.4 ± 0.7
2,AAACTTTTTTTAAAAACACACATATATATTTATATA [CACACA_site4092],9.92 ± 0.028
3,TATATATTATAAAAGAGTACAGAAAGAAAAAAAAAT [XGTACX_site8305],11.5 ± 0.85
4,AAATATCTACATATTTGTACATATTTATACATATTT [XGTACX_site6300],10.7 ± 0.45
5,GAAAAGTAGACAATATGTACATATAGTATTTATAAA [XGTACX_site878],11.1 ± 0.69
6,AGCAACCCCCTAGCTACACACATATAGATATAAATA [CACACA_site6577],10.9 ± 0.35
7,GTTTAAAATCTTTGCACACATATAAATAAATATATT [CACACA_site2555],10.2 ± 0.33
8,AGTATATTAATATAATGTACAAACGTTTATTTTGTA [XGTACX_site5980],10.7 ± 0.37
9,ACATATAAATTATATACACACAATAATATATATATA [CACACA_site1384],9.87 ± 0.13
10,TAAAAAAGTTATATTACACACTTTATTGGTTAACTT [CACACA_site653],10 ± 0.14
11,ATAATGTTTCTTTCAACACACAAAAAATGAACCCAT [CACACA_site4947],10.6 ± 0.51
12,TATTTATAAAAAAAATGTACATTTATGTATAAGCTA [XGTACX_site3266],10.8 ± 0.54
13,TAAATTTATTAATCAAGTACAAAATAAATTTTTATA [XGTACX_site2745],10.7 ± 0.67
14,AATATCAATATTATATGTACTTATAATTTCAATGTA [XGTACX_site2423],11.3 ± 0.79
15,AAAATTTAATATAATGCACACATAAAAAAAAAATCA [CACACA_site7882],9.97 ± 0.12
16,TATATATAGAAACACACACACACATATATATATATA [CACACA_site4116],10.1 ± 0.24
17,TATAATAGCTTCTTTACACACACCATTTTTTTTTTT [CACACA_site1456],9.95 ± 0.042
18,CTTACATATTACATATGTACATATACACCTTATGTC [XGTACX_site4679],11 ± 0.43
19,TATAAATTTTGTTTAGCACACACACCGACATACATA [CACACA_site9033],10.5 ± 0.46
20,ATGTTGTACAGACACACACACAAAAAAAAAATAAAA [CACACA_site7184],11.1 ± 1.1
21,ATATATATATATATATGTACATACATACAATCATAT [XGTACX_site6410],11.3 ± 0.7
22,CATCAAGTGAATTGTTGTACTTTACATTGTTTTTAT [XGTACX_site7261],11.1 ± 0.62
23,ATATATTTTTAATTTGCATGTAGTAAAGCCTTAAAT [TGCATGCA_site593],10 ± 0.26

row,Sequence,gcPBM binding intensity (ln)
1,TTAAATGTGAAGTGAATACACACCTAATAAATATAA [CACACA_site3194],10 ± 0.11
2,TTTTTTACATACAGAAATATATAATATAAAATAAAT [GTGCAC_negctrl_site278],9.86 ± 0.19
3,TTATGTATTACCTGCCGTACTTCTAAAATAATTAAA [XGTACX_site1716],11.2 ± 0.77
4,TTTAATTTTTATATAACACACATATTGGAATTATGT [CACACA_site734],9.9 ± 0.17
5,ATATATTTACTTAATACACACAAAAAAAAAAAAAAA [CACACA_site3657],9.92 ± 0.52
6,ACTGTCATTTATTGTAGTACGTCAATTTATTACATT [XGTACX_site2749],11.4 ± 0.65
7,TATCTTCATTTTTTTGGTACGCACGCAAATATGGCT [XGTACX_site3107],11.3 ± 0.79
8,TGTTACAAAAAATAATGTACTTAATATATATATATA [XGTACX_site1016],11 ± 0.7
9,AAAAATATTATAAGCACACATATATATATATATATA [CACACA_site2458],10.4 ± 0.86
10,TGAATATTCATGTGTGTGCGCATGTTGTTAGACCAT [GTGCAC_site9869],10.7 ± 0.4
11,TGTTTTCTTGATTATTGTACTTTAATTAGTAATATG [XGTACX_site8674],11.5 ± 0.69
12,TAAATACATTTATGTACACACACATAGATGTATATT [CACACA_site5618],11.3 ± 0.89
13,TAATAATAAATAAAATGTACATATGAACAAATAAGT [XGTACX_site6710],11.3 ± 0.61
14,AAAAAAAAAATTAATTGTACTAAAAAAATATTATAT [XGTACX_site8903],11 ± 0.59
15,TATAATATGTTATATACACACATTATAAAATACACA [CACACA_site6742],10 ± 0.25
16,CTCCTTTCAAAAAAATGTACATGTTTACATTTCAAG [XGTACX_site7342],11.2 ± 0.79
17,TATATTATTTTTAGAAGTACTTATTGTTATAATTCT [XGTACX_site1015],11.2 ± 0.7
18,AGAAAAGATAAAAATAGTACATATATATTTACTTAT [XGTACX_site7820],11.1 ± 0.72
19,ACGATTAAATCGATAATACACACTAAATGTAAAACA [CACACA_site119],9.97 ± 0.028
20,TATACACATATTTTTACACACATATTTTTTCATATA [CACACA_site7244],10.1 ± 0.23
21,TTATATATAATATGACGTACAATTATACATTTTATG [XGTACX_site7598],11.4 ± 0.83
22,ATAAATATTTATAACAGTACATATTTACTATCCTAA [XGTACX_site4497],10.7 ± 0.49
23,TATAAAAAAATATATATATATATTATATGTGTAGAA [TGCATGCA_negctrl_site391],9.875 ± 0.064

row,Sequence,gcPBM binding intensity (ln)
1,ATTTATTTGAAGAATTGTACTAAATTATATAGCGGT [XGTACX_site4998],11 ± 0.67
2,TTTTTTTTTAATCATGCACACTGTTAAAAGAATAAA [CACACA_site4817],10.2 ± 0.42
3,TATATCAAAATACATACACACATTTGTATTTACATT [CACACA_site5485],9.945 ± 0.007
4,ATTTTAATTTGTTATACACACACAAAAAAAATTATA [CACACA_site9306],10.2 ± 0.26
5,TCTTTTTAACAAAAAAAAAAAAAAAAAAAAAAATTA [CACACA_negctrl_site1637],9.69 ± 0.21
6,AGAATTTTATTATATTGTACTTTTTATAAACCTTGT [XGTACX_site7495],11.3 ± 0.91
7,TTTTGTTATTTTTCAGTGCAATATGATAATAATATA,10.1 ± 0.21
8,GAATCCTTAATATGAACACACAAATATATTACCCAT [CACACA_site186],10.2 ± 0.2
9,TGCTTATTTAGAATTGTGCACAGCGAATATTCTGTT,10.3 ± 0.28
10,TACATTTATACTACTGCATTCAAAAAAAATAAAAAA [TGCATGCA_negctrl_site157],10.1 ± 0.38
11,TTTTTTTTTTCAAATACATGCATTTATGTATAATAC [TGCATGCA_site722],10 ± 0.11
12,TTTTTTTTTTTTTTGTGTACTAATATTATAAATTTT [XGTACX_site4405],11.4 ± 1.1
13,TACATATTTTATAACTGTACTTTTTTATTATCCAAT [XGTACX_site5396],11.6 ± 0.78
14,TTTATATAAATCAAATGTACATATTCCAAATATATA [XGTACX_site8515],11.1 ± 0.67
15,TAGGAAAAAAATACAGTGCAATTTTTATATAAATAA [GTGCAC_site9979],9.74 ± 0.26
16,ATTAATATGAATAAAACACACATATATAACTTGTAA [CACACA_site6989],9.92
17,AATTATACTCACGTTACACACACACTATAAATATAT [CACACA_site7863],10.4 ± 0.28
18,AAAAATTTGGCATACACACACACACGCACACGCACA [CACACA_site6422],10.5 ± 0.32
19,TAAACTATATTTACATGTACATATAATATTAAATAA [XGTACX_site3528],11.3 ± 0.81
20,CCTATAAAACCATATACACACATATAAATAAAAAAA [CACACA_site7809],10.1 ± 0.35
